Test results from PubChem BioAssay (NCATS).
Inconclusive means that the source gave no clear call. Such entries were picked first, then a sample of the others. For some assays here: A potency beside an inconclusive call is a rough fit, not a confirmed value. The source made the active and inactive calls. Unless noted, calls follow the shape of the dose curve; as a rule, active = well fitted curve in the direction sought with a large enough effect; inconclusive = small, poorly fitted or top-dose-only effect, or another doubt; inactive = no such curve, though single readings can be large; an effect the other way counts as inactive or inconclusive.

How the values were obtained:
[1] = test system: HEK293; assay: Cytotoxic Profiling of Annotated Libraries Using Quantitative High-Throughput Screening (AID 1296008); details: Five cell lines viability, CellTiter-Glo ATP luminescence, 48-72 h; max response: hits give low values; also: nearly all actives have a fitted effect of over 60% in size; also: potency is read from the fitted curve at half-maximal effect
Procedure, shortened: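 Cells exposed to compounds for 48 or 72 hr at 37 degrees Celsius. Viability read as ATP-coupled luminescence with CellTiter-Glo after 10 min at room temperature.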

[2] = test system: PA-1; assay: Primary qHTS to identify gynecologic anti-cancer compounds using libraries of approved drugs and bioactive compounds (AID 1345084); details: Gynecologic cancer cell panel viability, ATPlite luminescence, 48 h; series mostly up to 57.5 µM; also: nearly all actives have a fitted effect of over 55% in size; also: potency is read from the fitted curve at half-maximal effect; as to activity change, negative = cytotoxicity: % is scaled to controls: 0 for no effect and ±100 for the full control effect
Procedure, shortened: (§1)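 Five-point cytotoxicity, 48 h drug exposure at 37 C, 5% CO2, on cells seeded 16 h beforehand. ATP content read by ATPlite luminescence.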

[3] = test system: SKOV3; assay: as above; details: Gynecologic cancer cell panel viability, ATPlite luminescence, 48 h; series mostly up to 57.5 µM
Procedure, shortened: as §1

[4] = Drug repurposing screens with cells derived from glioblastoma tumor samples (AID 1345199); details: GBM patient neurospheres viability, ATP luminescence, 48 h; Potency: tumour line A unless noted; activity, negative = cell killing: at 46 µM (top of the series), tumour line A unless noted; also: potency is read from the fitted curve at half-maximal effect; nearly all actives have a fitted effect of over 40% in size
Procedure, shortened: (§2)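 Primary testing used CD133+ neurospheres from four GBM patients, seven concentrations, 48 h exposure and ATP-based viability; confirmation added three slower-growing patient lines.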

[5] = P-glycoprotein substrates identified in KB-8-5-11 adenocarcinoma cell line, qHTS therapeutic library screen (AID 1346987); also: potency is read from the fitted curve at half-maximal effect; nearly all actives have a fitted effect of over 65% in size
Procedure, shortened: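 In this qHTS, P-gp-rich KB-8-5-11 cells received library compounds across a concentration range. Viability was quantified by luminescence after 72 h at 37 degree C.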

[6] = qHTS of pediatric cancer cell lines to identify multiple opportunities for drug repurposing: Primary screen for SJ-GBM2 cells (AID 1347091); also: potency is read from the fitted curve at half-maximal effect
Procedure, shortened: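 Viability measured as metabolically active cells via CellTiter-Glo luminescence following 48 hours of compound exposure, 11-point dilutions in confirmatory testing. 500-1,000 cells/well plated 5 hours before dosing; controls were DMSO and 2.3 µM bortezomib.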

[7] = qHTS of pediatric cancer cell lines to identify multiple opportunities for drug repurposing: Primary screen for A673 cells (AID 1347092); details: A673 Ewing sarcoma viability, CellTiter-Glo ATP luminescence, 48 h; activity change, negative = cytotoxic: at 46 µM (top of the series); also: % is scaled to controls: 0 for no effect and ±100 for the full control effect; nearly all actives have a fitted effect of over 45% in size
Procedure, shortened: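 Luminescence from CellTiter-Glo, taken after 15 min at room temperature, served as the proxy for metabolically active cells following 48 h treatment. Both potency and efficacy were taken from curves fitted to the titration data.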

[8] = qHTS of pediatric cancer cell lines to identify multiple opportunities for drug repurposing: Primary screen for SK-N-MC cells (AID 1347093); details: SK-N-MC viability, CellTiter-Glo luminescence, 48 h; activity change, negative = cytotoxic: at 46 µM (top of the series);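 also: plate controls were DMSO neutral control for no effect and bortezomib for full effect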
Procedure, shortened: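 Metabolically active cells were quantified by ATP-dependent luminescence (CellTiter-Glo, 15 min at room temperature) following 48 h treatment. Cells had been plated at 500-1,000 per well and settled for 5 h beforehand.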

[9] = qHTS of pediatric cancer cell lines to identify multiple opportunities for drug repurposing: Primary screen for BT-37 cells (AID 1347094); also: potency is read from the fitted curve at half-maximal effect
Procedure, shortened: (§3)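 500-1,000 cells/well; 5 h pre-incubation 37 °C/5% CO2; compound pinned; 48 h; CellTiter-Glo, 15 min RT; luminescence. MIPE 11-pt from 0.78 nM, NPC 8-pt from 0.59 nM final. Bortezomib 2.3 µM final as positive control.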

[10] = qHTS of pediatric cancer cell lines to identify multiple opportunities for drug repurposing: Primary screen for Saos-2 cells (AID 1347097); also: potency is read from the fitted curve at half-maximal effect; nearly all actives have a fitted effect of over 40% in size
Procedure, shortened: as §3

[11] = qHTS of pediatric cancer cell lines to identify multiple opportunities for drug repurposing: Primary screen for BT-12 cells (AID 1347101);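 also: plate controls were DMSO for no effect and bortezomib positive control for full effect; nearly all actives have a fitted effect of over 25% in size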
Procedure, shortened: (§4)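 Cells (500-1,000/well) rested 5 h, then received compounds for 48 h; metabolically active cells were measured by CellTiter-Glo luminescence. Final concentrations spanned up to 46 µM (MIPE, 11-point) or 0.59 nM-46 µM (NPC, 8-point) in primary screens, 11-point in follow-ups.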

[12] = qHTS of pediatric cancer cell lines to identify multiple opportunities for drug repurposing: Primary screen for OHS-50 cells (AID 1347103); also: potency is read from the fitted curve at half-maximal effect; nearly all actives have a fitted effect of over 40% in size
Procedure, shortened: as §4

[13] = qHTS of pediatric cancer cell lines to identify multiple opportunities for drug repurposing: Primary screen for MG 63 (6-TG R) cells (AID 1347105); details: MG 63 (6-TG R) viability, CellTiter-Glo, 48 h; activity change, negative = cytotoxic: at 46 µM (top of the series); also: % is scaled to controls: 0 for no effect and ±100 for the full control effect; nearly all actives have a fitted effect of over 50% in size
Procedure, shortened: as §3

[14] = target: Cytochrome P450 2D6 (Homo sapiens) (UniProt P10635); assay: Cytochrome P450 family 2 subfamily D member 6 (CYP2D6) small molecule antagonists: luciferase biochemical (cell-free) qHTS assay (AID 1645840; active = well fitted curve in the direction sought with a large enough effect in the repeat runs; inconclusive = weak or mixed curves; inactive = no such curve, though single readings can be large; an effect the other way counts as inactive or inconclusive; also: potency is read from the fitted curve at half-maximal effect; nearly all actives have a fitted effect of over 55% in size)
Procedure, shortened: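 P450-Glo CYP2D6 system: proluciferin substrate converted by enzyme to luciferin, read by luminescence proportional to activity. Enzyme-substrate mix with compound 10 min at room temperature, then NADPH regeneration 1 h before detection reagent.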

[15] = target: Phospholipid hydroperoxide glutathione peroxidase GPX4 (Homo sapiens) (UniProt P36969); assay: Primary qHTS Assay for Inhibitors of Recombinant Selenoprotein Glutathione Peroxidase 4 (GPX4) (AID 1845192); also: nearly all actives have a fitted effect of over 65% in size
Procedure, shortened: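 Steps: GPX4 plus compound, 30 min RT; add GR/GSH/NADPH master mix; start with cumene hydroperoxide; read 340/450 nm fluorescence at 0 and 15 min. Finals were 200 nM GPX4, 1 mM GSH, 0.5 mM CHP, 0.5 mM NADPH, 100 nM GR.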

[16] = Primary fluorescence-based thiol-reactive (MSTI) qHTS assay for identification of artifact compounds. (AID 1845221);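 also: thiol-reactive compounds lower the probe fluorescence signal; nearly all actives have a fitted effect of over 65% in size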
Procedure, shortened: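 Thiol-reactive compounds detected by quenching of 4 uM MSTI fluorescence (525/598 nm) after 1 h room-temperature dark incubation in PBS pH 7.4, 2% DMSO. qHTS titration; percent inhibition Hill-fitted against Acetyl-MSTI/MSTI controls.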

[17] = test system: OV90; assay: Primary qHTS to identify gynecologic anti-cancer compounds using libraries of approved drugs and bioactive compounds (AID 1345084); details: Gynecologic cancer cell panel viability, ATPlite luminescence, 48 h; series mostly up to 57.5 µM; also: nearly all actives have a fitted effect of over 55% in size; also: potency is read from the fitted curve at half-maximal effect; as to activity change, negative = cytotoxicity: % is scaled to controls: 0 for no effect and ±100 for the full control effect
Procedure, shortened: as §1

[18] = test system: astro; assay: Drug repurposing screens with cells derived from glioblastoma tumor samples (AID 1345199); details: viability, ATP luminescence, 48 h; activity, negative = cell killing: at 45.9 µM (top of the series); also: potency is read from the fitted curve at half-maximal effect; nearly all actives have a fitted effect of over 40% in size
Procedure, shortened: as §2

[19] = Primary redox qHTS assay for identification of artifact compounds. (AID 1845223); details: Amplex Red/HRP redox cycling with DTT, fluorescence; redox activity (% of DA3003): at 53.8 µM (top of the series); also: potency is read from the fitted curve at half-maximal effect
Procedure, shortened: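 Redox-cycling detection via DTT (250 uM final) oxidation coupled to Amplex Red (25 uM)/HRP (250 mU/mL) in HBSS. 15 min preincubation plus 30 min after DTT, room temperature. Ex/Em 525/598 nm; 4-parameter Hill fit against DMSO and 10 uM DA3003.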

[20] = target: Cytochrome P450 2C9 (Homo sapiens) (UniProt P11712); assay: Cytochrome P450 family 2 subfamily C member 9 (CYP2C9) small molecule antagonists: luciferase biochemical (cell-free) qHTS assay (AID 1645842; active = well fitted curve in the direction sought with a large enough effect in the repeat runs; inconclusive = weak or mixed curves; inactive = no such curve, though single readings can be large; an effect the other way counts as inactive or inconclusive)
Procedure, shortened: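 P450-Glo CYP2C9 system: proluciferin substrate with enzyme in mix containing 0.4% BSA, 10 min at room temperature, then NADPH regeneration solution added and incubated 1 h at 37C. Detection reagent stopped reaction; luminescence read after 20 min as RLU.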

[21] = Primary qHTS for inhibitors of nuclear receptor binding SET domain protein 2 (NSD2) in an isogenic RCH-ACV NSD2 p.E1099K mutant (9B) (AID 1645876); also: potency is read from the fitted curve at half-maximal effect; nearly all actives have a fitted effect of over 70% in size
[22] = Primary qHTS for inhibitors of nuclear receptor binding SET domain protein 2 (NSD2) in an RCH-ACV wild type WT cells (2C) (AID 1645877); details: activity change, negative = cell killing: at 44.9 µM (top of the series) unless noted; also: potency is read from the fitted curve at half-maximal effect; nearly all actives have a fitted effect of over 70% in size
[23] = test system: Zika virus NS2B-NS3 protease (linked construct); assay: Primary screen NINDS Rhodamine qHTS for Zika virus inhibitors (AID 1347160); details: activity change, negative = inhibition: at 57.1 µM (top of the series) unless noted; also: nearly all actives have a fitted effect of over 55% in size; also: potency is read from the fitted curve at half-maximal effect; as to activity change, negative = inhibition: % is scaled to controls: 0 for no effect and ±100 for the full control effect
Procedure, shortened: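 Enzyme (25 nM, linked NS2B-NS3) was preincubated 15 min with compound in 10 mM Tris-HCl pH 8.0, 0.01% Tween 20. Rhodamine110 substrate (1.5 microM) was then added and fluorescence read at start and after 15 min.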

[24] = test system: Zika virus NS2B-NS3 protease (unlinked complex); assay: Primary screen GU Rhodamine qHTS for Zika virus inhibitors: Unlinked NS2B-NS3 protease assay (AID 1347159); also: potency is read from the fitted curve at half-maximal effect; nearly all actives have a fitted effect of over 60% in size
Procedure, shortened: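 Enzyme 25 nM in Tris-HCl pH 8.0 + 0.01% Tween 20; compounds up to 114 microM, 15 min RT dark; + Rhod110 substrate 1.5 microM; read t0 and 15 min; delta fluorescence → % inhibition → 4-parameter Hill fit.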

[25] = test system: Nanoluciferase (engineered Oplophorus gracilirostris luciferase); assay: Primary Nanoluciferase (NLuc) qHTS assay for identification of artifact compounds. (AID 1845222);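 also: NLuc secreted into diluted conditioned medium of S16 cells; potency is read from the fitted curve at half-maximal effect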
Procedure, shortened: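 S16 cell supernatant NLuc, 1:55; cpds qHTS; 15 min RT dark; Nano-Glo substrate 1:100, 5 min; luminescence; Hill fit of % inhibition.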

[26] = test system: Tov-21-G; assay: Primary qHTS to identify gynecologic anti-cancer compounds using libraries of approved drugs and bioactive compounds (AID 1345084); details: Gynecologic cancer cell panel viability, ATPlite luminescence, 48 h; activity change, negative = cytotoxicity: at 57.5 µM (top of the series) unless noted; also: nearly all actives have a fitted effect of over 55% in size; also: potency is read from the fitted curve at half-maximal effect; as to activity change, negative = cytotoxicity: % is scaled to controls: 0 for no effect and ±100 for the full control effect
Procedure, shortened: as §1
Tags tell the direction and shape of the fitted curve.

UniProt P10635, sequence (P10635 whole entry, looked up): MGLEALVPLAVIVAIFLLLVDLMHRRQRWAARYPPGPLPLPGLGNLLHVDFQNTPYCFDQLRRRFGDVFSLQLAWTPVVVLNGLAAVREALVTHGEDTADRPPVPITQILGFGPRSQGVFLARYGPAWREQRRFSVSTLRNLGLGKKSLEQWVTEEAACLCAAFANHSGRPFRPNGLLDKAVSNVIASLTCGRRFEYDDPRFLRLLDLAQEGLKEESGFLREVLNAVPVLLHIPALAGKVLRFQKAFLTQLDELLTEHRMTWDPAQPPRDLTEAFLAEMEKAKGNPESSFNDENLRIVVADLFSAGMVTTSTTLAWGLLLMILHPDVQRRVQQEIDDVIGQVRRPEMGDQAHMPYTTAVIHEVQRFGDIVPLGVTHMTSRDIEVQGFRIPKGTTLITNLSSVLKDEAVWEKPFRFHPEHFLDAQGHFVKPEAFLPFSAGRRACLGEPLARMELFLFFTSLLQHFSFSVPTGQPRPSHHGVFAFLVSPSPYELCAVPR
UniProt P36969, sequence (P36969 whole entry, looked up): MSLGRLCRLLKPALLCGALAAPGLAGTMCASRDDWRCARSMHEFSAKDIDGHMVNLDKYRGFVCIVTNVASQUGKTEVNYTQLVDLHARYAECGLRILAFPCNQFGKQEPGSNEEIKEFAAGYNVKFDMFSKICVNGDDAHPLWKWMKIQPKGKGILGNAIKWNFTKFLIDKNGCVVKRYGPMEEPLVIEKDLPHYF
UniProt P11712, sequence (P11712 whole entry, looked up): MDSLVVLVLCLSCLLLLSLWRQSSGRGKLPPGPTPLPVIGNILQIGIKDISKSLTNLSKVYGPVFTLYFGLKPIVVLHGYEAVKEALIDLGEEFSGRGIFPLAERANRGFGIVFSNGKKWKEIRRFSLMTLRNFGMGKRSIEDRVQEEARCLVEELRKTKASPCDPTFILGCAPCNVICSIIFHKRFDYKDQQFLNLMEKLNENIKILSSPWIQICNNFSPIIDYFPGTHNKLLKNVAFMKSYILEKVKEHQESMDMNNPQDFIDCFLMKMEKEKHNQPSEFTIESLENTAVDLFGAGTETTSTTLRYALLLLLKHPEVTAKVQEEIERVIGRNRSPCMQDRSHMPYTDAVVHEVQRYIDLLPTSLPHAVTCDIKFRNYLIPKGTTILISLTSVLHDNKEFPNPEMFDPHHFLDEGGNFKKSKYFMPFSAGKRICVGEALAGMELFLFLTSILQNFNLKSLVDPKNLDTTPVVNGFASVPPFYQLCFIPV

CC[N+](C)(CC)CCOC(=O)C(O)(c1ccccc1)C1CCCCC1 (stereo not given)
inactive: Potency [2]
inconclusive: Potency [1] 33.5 µM [inhibitor, single point] | Potency [3] 6.31 µM [cytotoxic, single point] | Potency [4] 22.4 µM [inhibitor, partial curve]

CCN1CCN(c2cc(-c3ccc(F)cc3)c3c(n2)CCCCCC3)CC1
inconclusive: Potency [5] 16.4 µM [inhibitor, single point] | Potency [6] 14.6 µM [cytotoxic, single point] | Potency [9] 9.53 µM [cytotoxic, partial curve, poor fit] | Potency [10] 9.2 µM [cytotoxic, partial curve, poor fit] | Potency [12] 12 µM [cytotoxic, single point] | Potency [14] 3.38 µM [inhibitor, partial curve] | Potency [1] 13 µM [inhibitor, single point] | Potency [18] 22.4 µM [inhibitor, partial curve]
inactive: Potency [7] | Potency [8] | Potency [11] | Potency [13] | Potency [15] | Potency [16] | Potency [17] | Potency [3]

COc1cc(CN(CCN)C(=O)c2cccs2)ccc1OCc1ccccc1
inconclusive: Potency [5] 23.1 µM [inhibitor, single point] | Potency [19] 37.7 µM [activator, single point] | Potency [1] 29.1 µM [inhibitor, single point] | Potency [17] 14.1 µM [cytotoxic, partial curve]
active: Potency [14] 0.849 µM

Fc1ccc(N2CCN(CCC3OCCc4ccccc43)CC2)cc1 (stereo not given)
inconclusive: Potency [5] 13 µM [inhibitor, partial curve, poor fit] | Potency [21] 20.5 µM [inhibitor, partial curve] | Potency [22] 12.9 µM [inhibitor, partial curve] | Potency [19] 29.9 µM [activator, single point] | Potency [1] 29.1 µM [inhibitor, single point]
inactive: Potency [20] | Potency [17] | Potency [3]

CCC(C)C(=O)Oc1cc(C)ccc1C1(COC(=O)C(C)C)CO1 (stereo not given)
active: Potency [22] 5.67 µM
inconclusive: Potency [5] 14.3 µM [inhibitor, single point] | Potency [23] 5.62 µM [inhibitor, partial curve, poor fit] | Potency [21] 20.1 µM [inhibitor, single point] | Potency [1] 20.2 µM [inhibitor, single point]
inactive: Potency [16] | Potency [17]

C[C@@H](O)[C@H](NC(=O)c1ccc(C#Cc2ccc(CN3CCOCC3)cc2)cc1)C(=O)NO
inconclusive: Potency [24] 89.1 µM [inhibitor, partial curve, poor fit] | Potency [21] 16.3 µM [inhibitor, single point] | Potency [19] 26.7 µM [activator, partial curve, poor fit]
inactive: Potency [23] | max response [1] -16.7% | Potency [17]

COc1ccc(OC)c(C2C(C#N)=C(N)Oc3n[nH]c(-c4ccc5ccccc5c4)c32)c1 (stereo not given)
inactive: max response [1] 0.943% | Potency [2] | Potency [26]
inconclusive: Potency [24] 89.1 µM [inhibitor, single point] | Potency [25] 23.9 µM [inhibitor, single point] | Potency [19] 3.36 µM [activator, full curve] | Potency [3] 3.55 µM [rising, single point]

C=C[C@@]1(C)CC(=O)C2[C@](C)(O1)[C@@H](OC(C)=O)[C@@H](O)[C@H]1C(C)(C)CCC[C@]21C (stereo not given in full)
inconclusive: Potency [24] 22.4 µM [inhibitor, single point] | Potency [17] 0.398 µM [cytotoxic, single point] | Potency [3] 3.98 µM [rising, single point]
inactive: outcome [1]

C[C@@H]1O[C@@H](O[C@H]2[C@H](O[C@H]3CC[C@@]4(C)C(CC[C@]5(C)C4C=C[C@]46OC[C@@]7(CCC(C)(C)C[C@H]74)[C@@H](O[C@@H]4O[C@@H](C)[C@H](O)[C@@H](O)[C@H]4O)C[C@]65C)[C@]3(C)CO)O[C@H](CO)[C@@H](O)[C@@H]2O[C@@H]2O[C@H](CO)[C@@H](O)[C@H](O)[C@H]2O)[C@H](O)[C@H](O)[C@H]1O (stereo not given in full)
inactive: activity change, negative = thiol reactive [16] 75.2% [at 11.5 µM] | activity change, negative = cytotoxicity [3] -8.52% [at 11.6 µM]
inconclusive: Potency [5] 6.18 µM [inhibitor, single point] | Potency [21] 5.48 µM [inhibitor, single point] | Potency [22] 6.9 µM [inhibitor, single point] | Potency [19] 4.5 µM [activator, partial curve, poor fit] | Potency [1] 6.93 µM [inhibitor, single point] | Potency [17] 7.08 µM [cytotoxic, single point]
